# Data from a collection of fitness landscapes (doi:10.1016/j.celrep.2020.107928).
# Whole data set: some 81,000 sequences, median “one-hybrid fitness for binding NBS DNA” near -0.1, cut for the highest 2% near 0.36. Some of the results follow.
# B1: Caulobacter ParB omega fusion; a variant is named by its letters at X, in order, B8GW30 (parent)
# chain: MESVVVGEPGMSEGRRGLGRGLSALLGEVDAAPAQAPGEQLGGSREAPIEILQRNPDQPRRTFREEDLEDLSNSIREKGVLQPILVRPSPDTAGEYQIVAGERAWRAAQRAGLKTVPIMVRELDDLAVLEIGIIENVQRADLNVLEEALSYKVLMEKFERTQENIAQTIGKSXSHVANXMRLLXLPDEVQSYLVSGELTAXHARAIAAAADPVALAKQIIEGGLSVRETEALARKAPNLSAGKSKGGRPPRVKDTDTQALESDLSSVLGLDVSIDHRGSTGTLTITYATLEQLDDLCNRLTRGI
# Variants of: B1
# Test: one-hybrid fitness for binding NBS DNA (the Noc-binding site; scaled: cognate 1, non-cognate 0); higher = stronger binding
# Details: with NBS DNA site
# Method in brief: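 The reporter was HIS3, with the binding site 19 bp from the promoter, in E. coli USO used for bacterial one-hybrid selection of Caulobacter ParB libraries with four specificity codons randomised. Growth was on M9 lacking histidine, with 0.1 mM IPTG and 5 mM 3-AT, for 48 hours at 37°C. Illumina sequencing covered plasmids before and after selection; three replicate libraries were pooled and variants with under 10 reads dropped. A fitness score is the log change in variant-to-wild-type read ratio, rescaled to the cognate and non-cognate references.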
row,Variant,one-hybrid fitness for binding NBS DNA
1,QIEF,≤ 0.2
2,SGSH,≤ 0.2
3,AASP,≤ 0.2
4,DPQQ,≤ 0.2
5,SRYM,≤ 0.2
6,WKDP,≤ 0.2
7,HAKR,≤ 0.2
8,SFAA,≤ 0.2
9,VSTM,≤ 0.2
10,TNLN,≤ 0.2
11,FRSG,≤ 0.2
12,SNLF,≤ 0.2
13,FEDA,≤ 0.2
14,FSYT,≤ 0.2
15,DYWR,≤ 0.2
16,LHWR,≤ 0.2
17,YNND,≤ 0.2
18,VLIA,≤ 0.2
19,HLTD,≤ 0.2
20,GVIL,≤ 0.2
21,IAKS,≤ 0.2
22,IVVS,≤ 0.2
23,CVAC,≤ 0.2
24,FLAP,≤ 0.2

row,Variant,one-hybrid fitness for binding NBS DNA
1,AAGD,≤ 0.2
2,CHLM,≤ 0.2
3,CERF,≤ 0.2
4,LQTL,≤ 0.2
5,KAHC,≤ 0.2
6,QWAC,≤ 0.2
7,QCNW,≤ 0.2
8,IYEV,≤ 0.2
9,MLVW,≤ 0.2
10,RGLR,≤ 0.2
11,QFNT,≤ 0.2
12,QIAG,≤ 0.2
13,SHHG,≤ 0.2
14,SSHK,≤ 0.2
15,VRDK,≤ 0.2
16,AVVS,≤ 0.2
17,TYIC,≤ 0.2
18,VVVG,≤ 0.2
19,RTKH,0.651
20,NCME,≤ 0.2
21,NWSS,≤ 0.2
22,QPSM,≤ 0.2
23,GTVT,≤ 0.2
24,VHEL,≤ 0.2

row,Variant,one-hybrid fitness for binding NBS DNA
1,NKYM,≤ 0.2
2,WLWM,≤ 0.2
3,LVQA,≤ 0.2
4,IVGW,≤ 0.2
5,IMAR,≤ 0.2
6,PVEI,≤ 0.2
7,VLYT,≤ 0.2
8,GTQV,≤ 0.2
9,APIP,≤ 0.2
10,EFRN,≤ 0.2
11,NFRK,≤ 0.2
12,NFVS,≤ 0.2
13,VFEG,≤ 0.2
14,FLQC,≤ 0.2
15,ECRK,≤ 0.2
16,LGDC,≤ 0.2
17,AVLI,≤ 0.2
18,WHSC,≤ 0.2
19,GGMC,≤ 0.2
20,VLHR,≤ 0.2
21,NHKF,≤ 0.2
22,NPYG,≤ 0.2
23,THCV,≤ 0.2
24,AYLT,≤ 0.2

row,Variant,one-hybrid fitness for binding NBS DNA
1,QLNS,0.385
2,VCQT,≤ 0.2
3,QLTA,0.208
4,HLRE,≤ 0.2
5,DPHL,≤ 0.2
6,EVTY,≤ 0.2
7,MANL,≤ 0.2
8,QNLS,≤ 0.2
9,SIGR,≤ 0.2
10,RTPG,≤ 0.2
11,WFRT,≤ 0.2
12,PYCT,≤ 0.2
13,NINR,≤ 0.2
14,CRYE,≤ 0.2
15,RCCG,≤ 0.2
16,WVFR,≤ 0.2
17,MYCF,≤ 0.2
18,NARI,≤ 0.2
19,LHQR,≤ 0.2
20,QTAC,0.239
21,WTCS,≤ 0.2
22,LPLL,≤ 0.2
23,TSSA,≤ 0.2
24,PKSM,≤ 0.2

row,Variant,one-hybrid fitness for binding NBS DNA
1,PRRN,≤ 0.2
2,MPEV,≤ 0.2
3,DTKL,≤ 0.2
4,SRIM,≤ 0.2
5,QWDR,≤ 0.2
6,AIHE,≤ 0.2
7,KVKQ,≤ 0.2
8,NVYS,≤ 0.2
9,IIEL,≤ 0.2
10,CMAC,≤ 0.2
11,NLCG,≤ 0.2
12,RQWC,≤ 0.2
13,CTGT,≤ 0.2
14,HNTR,≤ 0.2
15,FQRV,≤ 0.2
16,GLHT,≤ 0.2
17,HRGL,≤ 0.2
18,TQYM,≤ 0.2
19,YTVS,≤ 0.2
20,PRKD,≤ 0.2
21,IAMY,≤ 0.2
22,NAIS,≤ 0.2
23,PDSR,≤ 0.2
24,DVES,≤ 0.2

row,Variant,one-hybrid fitness for binding NBS DNA
1,KHSG,≤ 0.2
2,MSHG,≤ 0.2
3,YSGC,≤ 0.2
4,EYTS,≤ 0.2
5,CITI,≤ 0.2
6,RFRH,≤ 0.2
7,VSWK,≤ 0.2
8,HIGV,≤ 0.2
9,SRHT,≤ 0.2
10,PHQM,≤ 0.2
11,QHYH,≤ 0.2
12,RIEP,≤ 0.2
13,QYYG,≤ 0.2
14,KPER,≤ 0.2
15,YKRC,≤ 0.2
16,CLTR,≤ 0.2
17,RQME,≤ 0.2
18,VCKC,≤ 0.2
19,EESG,≤ 0.2
20,RCPE,≤ 0.2
21,AASW,≤ 0.2
22,TLYM,≤ 0.2
23,HKKR,≤ 0.2
24,NWKY,≤ 0.2

row,Variant,one-hybrid fitness for binding NBS DNA
1,GSFH,≤ 0.2
2,DFYT,≤ 0.2
3,TYYS,≤ 0.2
4,HGPA,≤ 0.2
5,NYRG,≤ 0.2
6,MSNM,≤ 0.2
7,TCAL,≤ 0.2
8,ESQG,≤ 0.2
9,KHQE,≤ 0.2
10,TTIG,≤ 0.2
11,IGSG,≤ 0.2
12,SNMT,≤ 0.2
13,FSYC,≤ 0.2
14,CWTQ,≤ 0.2
15,RTMW,≤ 0.2
16,DAGC,≤ 0.2
17,IYHG,≤ 0.2
18,RPVY,≤ 0.2
19,NCCT,≤ 0.2
20,DTDV,≤ 0.2
21,QMTI,≤ 0.2
22,PMAL,≤ 0.2
23,RSSN,≤ 0.2
24,RKQG,≤ 0.2

row,Variant,one-hybrid fitness for binding NBS DNA
1,QSTK,≤ 0.2
2,PKVL,≤ 0.2
3,CPCM,≤ 0.2
4,NSYT,≤ 0.2
5,MPPT,≤ 0.2
6,YMLS,≤ 0.2
7,RMRQ,0.238
8,QNSK,≤ 0.2
9,TAPR,≤ 0.2
10,RCLD,≤ 0.2
11,YDFC,≤ 0.2
12,TNML,≤ 0.2
13,RVNV,≤ 0.2
14,TNDK,≤ 0.2
15,QVPW,≤ 0.2
16,DRGG,≤ 0.2
17,DVGS,≤ 0.2
18,RYEL,≤ 0.2
19,AHNC,≤ 0.2
20,TPCR,≤ 0.2
21,GRRM,≤ 0.2
22,TLPS,≤ 0.2
23,NKQG,≤ 0.2
24,DPVS,≤ 0.2

row,Variant,one-hybrid fitness for binding NBS DNA
1,GWSK,≤ 0.2
2,AERL,≤ 0.2
3,EFKT,≤ 0.2
4,SSEM,≤ 0.2
5,PIDQ,≤ 0.2
6,WFRR,≤ 0.2
7,KGST,≤ 0.2
8,YIHR,≤ 0.2
9,PQEW,≤ 0.2
10,PWPY,≤ 0.2
11,TWSR,≤ 0.2
12,PRCL,≤ 0.2
13,TYGV,≤ 0.2
14,YDTQ,≤ 0.2
15,IAET,≤ 0.2
16,GNNR,≤ 0.2
17,FTSC,≤ 0.2
18,NYHC,≤ 0.2
19,TIQC,≤ 0.2
20,KTKK,≤ 0.2
21,QPVA,≤ 0.2
22,HVPT,≤ 0.2
23,SSRP,≤ 0.2
24,TISP,≤ 0.2

row,Variant,one-hybrid fitness for binding NBS DNA
1,KHNT,≤ 0.2
2,CKYT,≤ 0.2
3,NCGG,≤ 0.2
4,AHRC,≤ 0.2
5,DRQL,≤ 0.2
6,PDTG,≤ 0.2
7,QPYA,≤ 0.2
8,PQIE,≤ 0.2
9,PYLG,≤ 0.2
10,MVPG,≤ 0.2
11,QYNV,≤ 0.2
12,PGGR,≤ 0.2
13,DTFF,≤ 0.2
14,TFLI,≤ 0.2
15,HAKM,≤ 0.2
16,PIDR,≤ 0.2
17,KDEM,≤ 0.2
18,RHLS,0.303
19,GDEG,≤ 0.2
20,VEQK,≤ 0.2
21,RMRM,0.23
22,PSRP,≤ 0.2
23,EKKS,≤ 0.2
24,RCLG,≤ 0.2

row,Variant,one-hybrid fitness for binding NBS DNA
1,PDQA,≤ 0.2
2,AFRR,≤ 0.2
3,VRNF,≤ 0.2
4,AGSS,≤ 0.2
5,QICL,≤ 0.2
6,QCHR,0.742
7,YWKR,≤ 0.2
8,LEAD,≤ 0.2
9,TKEV,≤ 0.2
10,TTRM,≤ 0.2
11,NAGL,≤ 0.2
12,SLAN,≤ 0.2
13,KPPS,≤ 0.2
14,HPWL,≤ 0.2
15,HVAF,≤ 0.2
16,TNVC,≤ 0.2
17,RQAH,≤ 0.2
18,RDRS,≤ 0.2
19,NKLG,≤ 0.2
20,EMNA,≤ 0.2
21,LRNC,≤ 0.2
22,QLLH,≤ 0.2
23,QCLF,≤ 0.2
24,KVAC,≤ 0.2

row,Variant,one-hybrid fitness for binding NBS DNA
1,SHLD,≤ 0.2
2,NKGG,≤ 0.2
3,AHEC,≤ 0.2
4,TISL,≤ 0.2
5,KRQC,≤ 0.2
6,QQSG,≤ 0.2
7,CEEG,≤ 0.2
8,GMGC,≤ 0.2
9,WYHR,≤ 0.2
10,AKWQ,≤ 0.2
11,YNPR,≤ 0.2
12,LRPD,≤ 0.2
13,VHHL,≤ 0.2
14,PVHW,≤ 0.2
15,ITGH,≤ 0.2
16,QAMR,0.45
17,QLSP,≤ 0.2
18,MHRD,≤ 0.2
19,RWLC,≤ 0.2
20,YKTF,≤ 0.2
21,CDRG,≤ 0.2
22,HCTT,≤ 0.2
23,KQKI,≤ 0.2
24,FHRR,≤ 0.2

row,Variant,one-hybrid fitness for binding NBS DNA
1,HAAP,≤ 0.2
2,WART,≤ 0.2
3,RYRY,0.301
4,QETC,≤ 0.2
5,PSMP,≤ 0.2
6,KLKT,0.243
7,SNYT,≤ 0.2
8,EHLF,≤ 0.2
9,PGYE,≤ 0.2
10,LAER,≤ 0.2
11,VSQY,≤ 0.2
12,RAST,0.405
13,CYHR,≤ 0.2
14,VPSI,≤ 0.2
15,QQCC,≤ 0.2
16,SCGR,≤ 0.2
17,TYYF,≤ 0.2
18,GWNS,≤ 0.2
